PubChem BioAssay AID1508623 (National Center for Advancing Translational Sciences (NCATS), 2021)
Screen size: about 48,000 compounds; about 450 (0.94%) were called active. Not shown: some 19% with an inconclusive outcome. The call rests on the fitted dose curve; in most records, active means well fitted inhibition curve with a large enough effect; inconclusive means small, poorly fitted or top-dose-only effect; inactive means no such curve, though single readings can be large or run the other way. The list shows a part of the results.

Test: Primary qHTS for Identification of Small Molecule Inhibitors of Huntingtin Promoter Activity; further: nearly all actives have a fitted effect of over 50% in size
Conditions: HEK293 HTT promoter firefly luciferase reporter (activity 0% = vehicle and -100% = no light), 24 h; series mostly up to 57.5 µM; activity change, negative = inhibition: at the top concentration
How it was run: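 HEK293 cells carrying firefly luciferase reporters were seeded at 2,500 per well in Opti-MEM and cultured for 24 h. They were then treated with compounds at up to 57.5 uM final for 24 h at 37 degrees C before Dual-Glo luminescence readout.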

SMILES | activity change, negative = inhibition
COc1ccc(S(=O)(=O)NCCc2sc(-c3cccc(F)c3)nc2C)cc1 | inactive: -28.1%
O=C(Nc1ccccc1F)C(Cc1ccccc1)N1Cc2ccccc2C1=O (stereo not drawn) | inactive: -13.2%
COc1ccc(NC(=O)CN2CCN(c3ccccc3F)CC2)c(OC)c1 | inactive: -12.9%
Cc1ccc(C(=O)/C=C/c2cn(CC(O)CN3CCCCCC3)c3ccccc23)cc1 (stereo not drawn) | inactive: -11.7%
Cc1ccc(NC(=O)CSc2nccn2Cc2ccc3c(c2)OCO3)c(C)c1 | inactive: -1.21%
c1cnc(N2CCN(Cc3ccc4c(c3)OCO4)CC2)nc1 | inactive: 12.7%
Cc1cc(C)c(NC(=O)CN(C)S(=O)(=O)c2ccc3c(c2)c(=O)n(C)c(=O)n3C)c(C)c1 | inactive: -13.8%
CCCSCCCNC(=O)CN1C(=O)CCn2nc(-c3cn(C)c4ccccc34)cc21 | inactive: -9.71%
CCC(C)NC(=O)CCC(=O)NNc1nc2ccccc2c2nc(C)nn12 (stereo not drawn) | inactive: -1.56%
CCc1ccc(S(=O)(=O)n2ccnc2)cc1 | inactive: 10.8%
COCCn1c(=NC(=O)c2ccc3c(c2)OCCO3)sc2cc(NC(C)=O)ccc21 | inactive: 13.4%
Cc1ccc(-c2nn3c(=O)cc(CN4CCN(C(=O)c5ccc(C(C)(C)C)cc5)CC4)nc3s2)cc1 | inactive: -20.9%
COc1cc(NS(=O)(=O)c2ccc(NC(=O)c3ccc(OC)c(Br)c3)cc2)nc(OC)n1 | inactive: -18.4%
COc1cc(Cl)c(C)cc1Nc1nnc(-n2nc(C)cc2C)c2ccccc12 | inactive: -6.88%
CCc1cccc(NC(=O)C(Cc2ccccc2)NS(=O)(=O)c2ccc3c(c2)c(=O)n(C)c(=O)n3C)c1 (stereo not drawn) | inactive: -19.9%
COc1cccc(N2CCN(C(=O)c3c4c(nc5ccccc35)C(=O)N(C3CCCCC3)C4)CC2)c1 | inactive: -9.17%
N[C@H]1CN(c2c(F)cc3c(=O)c(C(=O)O)cn(C4C[C@@H]4F)c3c2Cl)CC12CC2 (stereo partly drawn) | inactive: -0.923%
COc1cccc(NC(=O)C2CCCN2S(=O)(=O)c2ccc3nc(-c4ccccc4)[nH]c3c2)c1 (stereo not drawn) | inactive: -23.8%
COc1ccc(OCc2nc(C#N)c(NCc3ccccc3Cl)o2)cc1 | inactive: -26.8%
COc1ccccc1N1CCN(S(=O)(=O)c2ccc(-n3cnnn3)cc2)CC1 | inactive: -21.1%
CCOC(=O)N1CCc2c(sc3c2c(=O)n(-c2ccc(CC)cc2)c(=O)n3Cc2cccc(OC)c2)C1 | inactive: -4.27%
CCOc1ccc(C2c3c(oc4cc(C)c(C)cc4c3=O)C(=O)N2c2ccccn2)cc1 (stereo not drawn) | inactive: 0.87%
CCC(C(=O)Nc1cc(C)ccc1OC)n1nnc(C(=O)OC)c1C(=O)OC (stereo not drawn) | inactive: 15.6%
Cc1ccc(C)c(S(=O)(=O)n2nc(C)c(S(=O)(=O)N3CCC(C)CC3)c2C)c1 | inactive: -3.81%

SMILES | activity change, negative = inhibition
Cc1ccc(-n2nc3c(N4CCC(C(=O)N(C)Cc5ccccc5)CC4)nnc(C)c3c2C)cc1 | inactive: -0.199%
CC(=O)Nc1ccc(S(=O)(=O)Nc2nc3n(n2)C(c2ccccc2)C=C(c2ccc(Cl)cc2)N3)cc1 (stereo not drawn) | inactive: 0.994%
COc1ccccc1CNC(=O)CCC(=O)N1Cc2ccccc2Oc2ncccc21 | inactive: -7.82%
CN(C)c1ccc(CN(Cc2ccco2)C(=O)c2ccc(F)cc2)cc1 | inactive: -29.1%
COc1ccc(C2CC(=O)c3cnc4c(-c5ccccc5)c(C)nn4c3C2)c(OC)c1 (stereo not drawn) | inactive: -5.87%
CCCCNC(=O)CCCn1c(=O)c2ccccc2n(Cc2ccc(Cl)cc2)c1=O | inactive: -11.8%
COc1ccc2c(c1)c1c(c(=O)n(-c3ccc(OC)c(OC)c3)c(=O)n1Cc1ccc(C)cc1)n2C | inactive: -7.96%
COc1ccccc1CNC(=O)CCCn1c(=O)c2cccn2c2ccccc21 | inactive: -9.14%
CC(C)(C)OC(=O)N1CCC(c2c(C(=O)N3CCOCC3)cnn2-c2ccccc2Cl)CC1 | inactive: 2.78%
CCn1c(C(=O)N(C2CC2)C2CC2)cc2c3c(ncn3C)c(Nc3cc(C)n(C)n3)nc21 | inactive: -11%
COc1ccc(-c2nc(SCC(=O)Nc3cccc(C(C)=O)c3)n[nH]2)cc1 | inactive: -15%
Fc1ccc(-c2noc3ncnc(N4CCCCC4)c23)cc1 | inactive: -4.73%
O=C(Cc1ccccc1)Nc1cc(-c2nc3cc(Cl)ccc3o2)ccc1Cl | inactive: -5.46%
COc1ccc(Cc2nc3ccc(C(=O)NCc4cc(Br)ccc4OC)cc3o2)cc1 | inactive: -29.7%
COc1ccc(CCC(=O)NCc2nc3cccnc3n2Cc2ccc(OC)cc2)cc1 | inactive: 2.25%
CCOC(=O)c1c(NC(=O)CS(=O)(=O)c2ccc(Cl)cc2)sc2c1CCCC2 | inactive: -9.36%
CNC(=O)C1CCN(C(=O)N2CC(C)Oc3ccc(C)cc32)CC1 (stereo not drawn) | inactive: 4.34%
COc1ccc(-c2cc(C(=O)OCC(=O)c3cccc(OC)c3)c3cccc(Cl)c3n2)cc1 | inactive: 22.3%
CCOC(=O)c1c(NC(=O)c2cc(=O)c3c(C)cc(C)cc3o2)sc2c1CCC2 | inactive: 0%
COc1ccc(NC(=O)C2CCN(c3nc(-c4ccc(OC)c(OC)c4)no3)CC2)cc1Cl | inactive: -9.17%
COc1ccccc1N(C)C(=O)Cn1c(=O)oc2cc(S(=O)(=O)N3CCCC3)ccc21 | inactive: -7.75%
O=C(O)CCNC(=O)c1ccc(N=Nc2ccc(O)c(C(=O)O)c2)cc1 | inactive
Cc1nn(C)c2c1c(C(F)(F)F)cc(=O)n2C(C)C(=O)N1CCN(c2ccccc2)CC1 (stereo not drawn) | inactive: -17%
CCOC(=O)c1c(C)[nH]c(C)c1S(=O)(=O)N1CCN(c2ccccc2OC)CC1 | inactive: -11.4%
